The record followed here is the GPR68 mutational scans of Howard et al. (2025).

B1: GPR68, Q15743 (parent)
chain: MGNITADNSSMSCTIDHTIHQTLAPVVYVTVLVVGFPANCLSLYFGYLQIKARNELGVYLCNLTVADLFYICSLPFWLQYVLQHDNWSHGDLSCQVCGILLYENIYISVGFLCCISVDRYLAVAHPFRFHQFRTLKAAVGVSVVIWAKELLTSIYFLMHEEVIEDENQHRVCFEHYPIQAWQRAINYYRFLVGFLFPICLLLASYQGILRAVRRSHGTQKSRKDQIQRLVLSTVVIFLACFLPYHVLLLVRSVWEASCDFAKGVFNAYHFSLLLTSFNCVADPVLYCFVSETTHRDLARLRGACLAFLTCSRTGRAREAYPLGAPEASGKSGAQGEEPELLTKLHPAFQTPNSPGSGGFPTGRLA

Scores with a large standard error are left out. Two further conditions of the source, in which the scores hardly spread, are not listed. Read del as a deletion of the residues named and ins as an insertion between two positions. For some of these results: How much ogerin was present is not stated here.

Variants of B1 are the subject of data set [1]. The data set is described as follows: cAMP reporter score (Enrich2 score, wild type = 0); higher = more signal; HEK293T, FACS bins.
In data set [2] the parent is B1. The data set can be described thus: surface expression score (Enrich2 score, wild type = 0); higher = more signal; HEK293T, FACS bins.

Consider A66F, for which the cAMP reporter score in data set [1] (pH 5.5) is -1.45; in data set [1] (pH 6), -0.27; in data set [1] (pH 6, modulator: ogerin), -1.32; in data set [1] (pH 6.5, modulator: ogerin) it was -0.412. Also, in data set [2], the surface expression score is -1.35.
With A66C, the cAMP reporter score in data set [1] (pH 5.5) is -0.375; in data set [1] (pH 6, modulator: ogerin) it was -0.645; in data set [1] (pH 6.5, modulator: ogerin), -0.892. Besides, the surface expression score in data set [2] amounted to 0.981.
With A66D, the cAMP reporter score in data set [1] (pH 5.5) was -1.79; in data set [1] (pH 6) it was -2.43; in data set [1] (pH 6.5, modulator: ogerin), -1.2.
As to A66N, the cAMP reporter score in data set [1] (pH 5.5) is 0.777; in data set [1] (pH 6), 3.44; in data set [1] (pH 6, modulator: ogerin), 0.087; in data set [1] (pH 6.5, modulator: ogerin), -0.574. The surface expression score in data set [2] amounted to 1.82.
In the case of A66H, the cAMP reporter score in data set [1] (pH 5.5) is -2.56; in data set [1] (pH 6.5, modulator: ogerin) it was -1.51.
As to A66E, the cAMP reporter score in data set [1] (pH 5.5) is -1.36; in data set [1] (pH 6) it was -0.071; in data set [1] (pH 6, modulator: ogerin), -0.95; in data set [1] (pH 6.5, modulator: ogerin) it was -1.07. Further, the surface expression score in data set [2] was -1.3.
The matching figures for A66K: -1.65, -0.997, -1.49, -1.44 and 1.76.
Taken in the same sequence, the figures for A66M were -1, -0.526, -1.68, -1.13 and 0.114.
With A66G, the cAMP reporter score in data set [1] (pH 5.5) was -0.539; in data set [1] (pH 6) it was -0.778; in data set [1] (pH 6, modulator: ogerin), -0.944; in data set [1] (pH 6.5, modulator: ogerin) it was -0.897. The surface expression score in data set [2] was -1.04.
In the case of A66L, the cAMP reporter score in data set [1] (pH 5.5) was -1.41; in data set [1] (pH 6), -0.5; in data set [1] (pH 6, modulator: ogerin) it was -1.49; in data set [1] (pH 6.5, modulator: ogerin), -0.806. Besides, the surface expression score in data set [2] was 1.24.
With L63_T64insG, the cAMP reporter score in data set [1] (pH 5.5) is -0.566; in data set [1] (pH 6), -0.223; in data set [1] (pH 6, modulator: ogerin), -0.749; in data set [1] (pH 6.5, modulator: ogerin), -0.13. For the same variant, the surface expression score in data set [2] is -2.26.
Turning to V58_L60del, the cAMP reporter score was -1.41 in data set [1] (pH 5.5); -0.942 in data set [1] (pH 6); -1.55 in data set [1] (pH 6, modulator: ogerin); -0.357 in data set [1] (pH 6.5, modulator: ogerin).
Regarding L63_V65del, the cAMP reporter score in data set [1] (pH 5.5) is -1.81; in data set [1] (pH 6), -2.17; in data set [1] (pH 6, modulator: ogerin) it was -1.63; in data set [1] (pH 6.5, modulator: ogerin), -0.165. In addition, the surface expression score in data set [2] was -3.48.
Regarding C61_N62insG, the cAMP reporter score in data set [1] (pH 5.5) is -0.761; in data set [1] (pH 6), -0.848; in data set [1] (pH 6, modulator: ogerin), -1.77; in data set [1] (pH 6.5, modulator: ogerin), -1.65. Besides, the surface expression score in data set [2] was -1.74.
Taken in the same sequence, the figures for R53_N54del were -2.04, -0.453, -0.879, -0.53 and -3.33.
For the variant G57_V58del, the cAMP reporter score is -1.15 in data set [1] (pH 5.5); -1.21 in data set [1] (pH 6); -1.23 in data set [1] (pH 6, modulator: ogerin); -0.783 in data set [1] (pH 6.5, modulator: ogerin). Moreover, the surface expression score in data set [2] was -3.15.
On to L63_T64del, for which the cAMP reporter score was -0.079 in data set [1] (pH 5.5); -0.311 in data set [1] (pH 6); -0.25 in data set [1] (pH 6, modulator: ogerin); 0.125 in data set [1] (pH 6.5, modulator: ogerin). In addition, the surface expression score in data set [2] is -1.2.
As to N62H, the cAMP reporter score is -0.933 in data set [1] (pH 5.5); -0.708 in data set [1] (pH 6); -1.77 in data set [1] (pH 6, modulator: ogerin); -1.02 in data set [1] (pH 6.5, modulator: ogerin). Moreover, the surface expression score in data set [2] is -2.15.
With N62K, the cAMP reporter score is -2.26 in data set [1] (pH 5.5); -2.21 in data set [1] (pH 6, modulator: ogerin); -0.418 in data set [1] (pH 6.5, modulator: ogerin). For the same variant, in data set [2], the surface expression score was -2.25.
For the variant N62W, the cAMP reporter score was -1.35 in data set [1] (pH 5.5); -0.81 in data set [1] (pH 6); -1.02 in data set [1] (pH 6, modulator: ogerin); -0.844 in data set [1] (pH 6.5, modulator: ogerin). In addition, in data set [2], the surface expression score is -1.55.
Taken in the same sequence, the figures for N62L were -1.21, -0.572, -0.868, -1.14 and -1.94.
Regarding N62S, the cAMP reporter score is 0.067 in data set [1] (pH 5.5); -0.839 in data set [1] (pH 6); 0.463 in data set [1] (pH 6, modulator: ogerin); 0.156 in data set [1] (pH 6.5, modulator: ogerin). Besides, the surface expression score in data set [2] worked out at 1.08.
For N62M, the cAMP reporter score was 0.345 in data set [1] (pH 5.5); 0.604 in data set [1] (pH 6); 1.43 in data set [1] (pH 6, modulator: ogerin); 1.57 in data set [1] (pH 6.5, modulator: ogerin). The surface expression score in data set [2] worked out at 2.24.
The matching figures for N62D: -0.752, -0.441, -0.829, -0.627 and -0.683.
Taken in the same sequence, the figures for N62I were -1.08, -0.952, -2.1, -0.747 and -2.67.
As to N62Y, the cAMP reporter score in data set [1] (pH 5.5) was -0.885; in data set [1] (pH 6, modulator: ogerin), -2.95; in data set [1] (pH 6.5, modulator: ogerin) it was -0.785. For the same variant, the surface expression score in data set [2] was -0.446.
Regarding N62T, the cAMP reporter score in data set [1] (pH 5.5) was -0.257; in data set [1] (pH 6) it was -0.851; in data set [1] (pH 6, modulator: ogerin) it was -1.64; in data set [1] (pH 6.5, modulator: ogerin), -0.391. Moreover, the surface expression score in data set [2] is -1.71.
N62E: the cAMP reporter score in data set [1] (pH 5.5) was -0.23; in data set [1] (pH 6, modulator: ogerin), -0.873; in data set [1] (pH 6.5, modulator: ogerin), 0.176. Moreover, the surface expression score in data set [2] is -2.35.
Take N62A: the cAMP reporter score in data set [1] (pH 5.5) is 0.284; in data set [1] (pH 6), -0.017; in data set [1] (pH 6, modulator: ogerin), 0.402; in data set [1] (pH 6.5, modulator: ogerin), 0.203. Moreover, the surface expression score in data set [2] stood at 1.1.
Regarding N62R, the cAMP reporter score in data set [1] (pH 5.5) is -0.448; in data set [1] (pH 6, modulator: ogerin) it was -0.651; in data set [1] (pH 6.5, modulator: ogerin), -0.424.
In the case of N62F, the cAMP reporter score in data set [1] (pH 5.5) was -0.299; in data set [1] (pH 6), -1.07; in data set [1] (pH 6, modulator: ogerin) it was -0.095; in data set [1] (pH 6.5, modulator: ogerin), -0.997. In addition, the surface expression score in data set [2] came out at 0.212.
For the variant N62C, the cAMP reporter score in data set [1] (pH 5.5) amounted to 0.742; in data set [1] (pH 6) it was 1.28; in data set [1] (pH 6, modulator: ogerin), 1.46; in data set [1] (pH 6.5, modulator: ogerin), 2.51. Also, the surface expression score in data set [2] is 1.66.
